ChEMBL document CHEMBL4888484, “Replenishing the malaria drug discovery pipeline: Screening and hit evaluation of the MMV Hit Generation Library 1 (HGL1) against asexual blood stage Plasmodium falciparum ,using a nano luciferase reporter read-out” (2022)
About 540 (0.36%) of roughly 150,000 compounds showed an effect of 50% or more. The list shows a part of the results.

Test system: Plasmodium falciparum
Assay: Primary screen in NF54 nanoGlo assay, in single point, at 2uM, 72h; a lower Z score goes with more inhibition
Format: functional, Erythrocyte
Details: timepoint 72 hour

Row | Compound | % Inhibition | Z score
1 | CN(C)C[C@@H]1CN(C(=O)CCCc2ccccc2)C[C@@H]1CO | -4% | 0.65
2 | CC[C@H](NC(=O)N1CCC(c2nc3ccccc3o2)CC1)c1nc(C)no1 | -3% | 0.62
3 | Cc1nnc(NC(=O)c2cccc(-n3ccnn3)c2)s1 | -3% | 0.4
4 | Cc1ccc(-c2ccc(=O)[nH]n2)cc1NC(=O)CN1CCCC1=O | 6% | -0.73
5 | CCc1nocc1CNC1CCN(CC(F)F)CC1 | -10% | 1.05
6 | CCN1C(=O)C(=O)N(Cc2cc(-c3ccc(Cl)cc3)no2)C1=O | -10% | 1.93
7 | O=C(c1cc[nH]n1)N1CCC(Oc2cccc(C(F)(F)F)c2)CC1 | -6% | 0.81
8 | CC[C@@H](C#N)N1CCN(C(=O)COC)CC1 | -2% | 0.28
9 | CN(CC(=O)NC1CCCCCCC1)S(C)(=O)=O | -8% | 1.45
10 | CS(=O)(=O)c1ccc(C(=O)N2CCC[C@H]2c2cccs2)cc1 | -2% | 0.36
11 | Cc1cc(C(=O)NCC2CCN(C[C@@H]3CC=CCC3)CC2)nn1C | 10% | -1.34
12 | c1ccc2c3c(c(CN4CCCCC4)cc2c1)COC3 | 0% | 0.05
13 | C[C@@H](CNC(=O)c1ccc(CN(C)C)o1)COCc1ccccc1 | -13% | 2.35
14 | Cc1cc(NC(=O)Cn2nc(Cc3ccccc3)[nH]c2=O)n(C)n1 | -12% | 1.82
15 | CC(C)[C@@H](CO)NC(=O)C(O)c1ccccc1 (some centres undefined) | -19% | 2.12
16 | CCOCC(=O)NCCn1ccc2ccn(CC)c2c1=O | -12% | 2.24
17 | COc1ccc(OC)c([C@@H]2CCCN2c2nnc(-c3ccccn3)s2)c1 | -13% | 2.07
18 | COc1ccc(-c2noc([C@H](C)O)c2C(=O)N2CCOCC2)cc1OC | 2% | -0.39
19 | O=S(=O)(Cc1ccccc1)NCc1cccnc1N1CCCCCCC1 | 5% | -0.9
20 | COC(=O)n1cc2c(n1)-c1ccccc1OC2 | 5% | -0.79
21 | CN(C(=O)CCc1ccccn1)[C@H]1CCCN(Cc2ccccc2)C1 | -8% | 1.48

Row | Compound | % Inhibition | Z score
22 | COc1ccc(-n2cnnc2)cc1NC(=O)c1cnc(N(C)C)nc1C | -14% | 1.36
23 | CCn1cncc1[C@@H]1CCCCN1c1nc(N)nc(C(F)(F)F)n1 | 9% | -1.52
24 | CC(C)c1[nH]ccc1C(=O)NCCn1cncc1-c1ccccc1 | 9% | -1.18
25 | CCOc1cc(CN[C@H]2CCc3ccccc32)ccn1 | -16% | 1.83
26 | CC(=O)NCC1CCN(c2nc3ccccc3c(=O)[nH]2)CC1 | -2% | 0.27
27 | O=C(O)C1c2ccccc2C(=O)N(C2CCCCC2)C1c1ccccc1 (centres undefined) | -8% | 1.08
28 | Cc1ccccc1C(=O)N1[C@H](C(=O)NCc2ccccn2)COC12CCN(C(=O)Cc1cccs1)CC2 | -8% | 0.9
29 | CN(C)C(=O)c1cnc(N(C)C)nc1[C@H]1CCN(Cc2ccncc2F)C1 | -8% | 0.99
30 | Cc1cnc(C(=O)N2CC(Oc3cc(C)nc4ncnn34)C2)cn1 | 8% | -1.06
31 | CCOC(=O)N1CC[C@H](NCc2ccc(-c3ncon3)cc2)C1 | -10% | 1.72
32 | O=C1c2[nH]c3ccccc3c2[C@@H](c2cccc(Cl)c2)OCCN1Cc1ccccc1 | 7% | -0.8
33 | Cc1ccc(-c2ccc(CCC(=O)NCCc3cnn(C)c3)o2)cc1 | -4% | 0.48
34 | CO[C@H]1[C@H](NC(=O)c2ccsc2)c2ccccc2C12CCN(Cc1ccc3ncccc3c1)CC2 | 14% | -1.81
35 | CC1CN(CC(O)Cn2ccnc2C(=O)c2ccccc2)CC(C)O1 (centres undefined) | 4% | -0.57
36 | CC[C@H]1CCCCN1C(=O)Cc1c(C)nc2nc(-c3cccs3)nn2c1C | -10% | 1.19
37 | COc1cccc(N2CCN(C(=O)c3ccc4c(c3)N(Cc3ccc(F)cc3)C(=O)CO4)CC2)c1 | 2% | -0.23
38 | O=C(CN1Cc2ccccc2C1)N[C@H]1CCOC[C@@H]1O | -4% | 0.87
39 | O=C(NCCCn1ncc2c(Cl)cccc21)c1ccco1 | 2% | -0.29
40 | C[C@@H]1Oc2ccc(-c3csc(NC(=O)c4ccccc4Cl)n3)cc2N(C)C1=O | 31% | -0.96
41 | CCCn1nccc1-c1csc(S(=O)(=O)NCc2cccc(F)c2)c1 | -3% | 0.59
42 | O=C(c1cccc(=O)[nH]1)N1CCC[C@H](c2n[nH]c(=O)n2-c2ccccc2)C1 | 2% | -0.39
